Assay results: a compilation of properties of binary mixtures (doi:10.1016/j.molliq.2017.08.019)
Some of these densities may be calculated back from excess volumes.

Assay: xn = mol fraction of the nth substance listed
Details: 100 kPa

CCCC[n+]1ccn(C)c1.F[P-](F)(F)(F)(F)F + CCCC[n+]1ccn(C)c1.O=S(=O)([O-])C(F)(F)F
x1 = 1
Details | mass density [kg/m3]
293.15 K | 1371.4
298.15 K | 1367.2
303.15 K | 1362.9
308.15 K | 1358.8
313.15 K | 1354.7
323.15 K | 1346.5
328.15 K | 1342.4

CCCC[n+]1ccn(C)c1.O=S(=O)([O-])C(F)(F)F + CCCC[n+]1ccn(C)c1.F[P-](F)(F)(F)(F)F
mass density [kg/m3]
Details | 293.15 K | 298.15 K | 303.15 K | 308.15 K | 313.15 K | 318.15 K | 323.15 K | 328.15 K
x2 = 0 | 1301.5 | 1297.5 | – | 1289.7 | 1285.7 | 1281.8 | 1277.9 | 1273.9
x2 = 0.0005 | 1301.5 | 1297.6 | – | 1289.7 | – | 1281.9 | – | 1274
x2 = 0.0006 | 1301.5 | 1297.6 | 1293.7 | 1289.7 | – | – | – | 1274
x2 = 0.0007 | 1301.5 | – | 1293.7 | 1289.7 | 1285.8 | 1281.9 | 1278 | 1274
x2 = 0.0009 | 1301.5 | 1297.6 | 1293.7 | 1289.8 | – | 1281.9 | 1278 | 1274.1
x2 = 0.0018 | 1301.6 | – | 1293.8 | 1289.8 | 1285.9 | – | 1278.1 | 1274.2
x2 = 0.0061 | – | 1298.1 | 1294.2 | 1290.3 | 1286.4 | 1282.5 | 1278.5 | 1274.7
x2 = 0.01 | 1302.4 | 1298.5 | 1294.5 | 1290.6 | 1286.8 | 1282.9 | 1279 | 1275.1
x2 = 0.0501 | 1305.8 | 1302 | 1298.2 | 1294.4 | 1290.7 | 1286.9 | 1283.1 | 1279.3
x2 = 0.0806 | 1308.4 | – | – | 1297.1 | 1293.4 | 1289.7 | 1286 | 1282.2
x2 = 0.1 | 1310 | 1306.2 | – | 1298.8 | 1295.1 | 1291.5 | 1287.8 | 1284
x2 = 0.15 | – | 1310.3 | 1306.5 | – | 1299.3 | – | 1292.1 | –
x2 = 0.1999 | – | 1314.2 | 1310.4 | – | – | – | 1296.1 | –
x2 = 0.3 | 1325.7 | 1321.7 | 1317.7 | 1314.3 | 1310.7 | – | – | 1299.5
x2 = 0.3999 | 1333.1 | 1328.8 | 1324.5 | 1321 | 1317.4 | 1313.7 | 1310.1 | 1305.7
x2 = 0.5002 | 1340.1 | 1335.5 | 1331.2 | 1327.6 | – | 1319.9 | 1316.2 | 1311.8
x2 = 0.6 | 1346.6 | 1342 | 1337.6 | 1333.8 | 1329.7 | 1326 | 1322 | 1317.7
x2 = 0.7 | – | 1348.2 | 1343.9 | 1340 | 1335.7 | 1331.9 | 1327.9 | 1323.7
x2 = 0.7995 | 1358.7 | 1354.2 | 1349.9 | 1345.9 | – | 1337.9 | 1333.6 | 1329.7
x2 = 0.8997 | 1364.8 | 1360.5 | 1356.1 | 1352 | 1348 | – | – | 1335.8
